Source: PubChem BioAssay AID485294 (National Center for Advancing Translational Sciences (NCATS), 2010)
The whole screen tested about 370,000 compounds, of which about 150 (0.041%) were called active. Inconclusive means that the source gave no clear call. Such entries were picked first, then a sample of the others. The call rests on the fitted dose curve; in most records, active means well fitted inhibition curve with a large enough effect; inconclusive means small, poorly fitted or top-dose-only effect; inactive means flat fitted curve, though single readings scatter. No potency is given beside an inconclusive call; the fits are too rough.

These compounds were tested against Beta-lactamase (Escherichia coli (strain K12)) (UniProt P00811) (assay: qHTS Inhibitors of AmpC Beta-Lactamase (assay with detergent)). Conditions: AmpC hydrolysis of nitrocefin, absorbance 480 nm, 0.01% Triton; series mostly up to 114 µM.
UniProt P00811, sequence (P00811 whole entry, looked up): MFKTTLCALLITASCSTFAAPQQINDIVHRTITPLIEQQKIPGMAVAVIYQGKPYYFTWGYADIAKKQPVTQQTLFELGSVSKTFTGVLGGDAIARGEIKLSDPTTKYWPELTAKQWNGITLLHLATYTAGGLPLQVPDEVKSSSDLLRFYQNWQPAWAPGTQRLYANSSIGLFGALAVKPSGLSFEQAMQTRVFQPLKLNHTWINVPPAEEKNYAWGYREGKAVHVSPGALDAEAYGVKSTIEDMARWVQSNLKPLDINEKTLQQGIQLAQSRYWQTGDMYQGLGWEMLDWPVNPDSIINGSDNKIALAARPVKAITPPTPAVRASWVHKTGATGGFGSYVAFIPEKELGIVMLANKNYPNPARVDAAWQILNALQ
Summary of the method: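 AmpC (5.3 nM in the dispensed reagent) in 20 mM phosphate pH 7.0 with 0.01% (detergent screen) or 0.0001% Triton X-100 was preincubated with compounds for 15 min at room temperature. Nitrocefin was then added from an 800 uM solution, and hydrolysis was followed at 480 nm.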
Further: nearly all actives have a fitted effect of over 25% in size.
Potency means the concentration at half of the fitted maximal effect; tags describe the fitted curve by direction and shape.

SMILES | Potency
CCc1nnc(NC(=O)CCC(=O)N2CCN(c3cc(C)ccc3C)CC2)s1 | inconclusive [inhibitor, full curve]
O=C(COC(=O)c1cc(=O)[nH]c2ccccc12)NCc1ccc(Cl)cc1 | inconclusive [inhibitor, full curve, poor fit]
CC(C)c1ccc(/C=N/NC(=O)CC(=O)NCc2ccccc2)cc1 | inconclusive [inhibitor, full curve]
Cc1ccccc1Nc1cc(C)c2c(O)cccc2n1 | inconclusive [inhibitor, partial curve, poor fit]
CCOc1ccccc1NC(=O)Cn1nnc(-c2ccc(OCC)c(OCC)c2)n1 | inconclusive [inhibitor, full curve, poor fit]
CCCCCCO | inactive
Cc1nn(S(=O)(=O)N2CCCCC2)c(C)c1Br | inconclusive [inhibitor, full curve]
Cc1cc(NC(=O)Cn2cc([N+](=O)[O-])cn2)no1 | inconclusive [inhibitor, single point]
Cc1cccc(CN2CCN(C(=O)CN(C)C(C)C(=O)Nc3ccc(C(N)=O)cc3)CC2)c1 (centres undefined) | inconclusive [inhibitor, single point]
Cc1ccc(S(=O)(=O)NCc2ccccn2)cc1C | inconclusive [inhibitor, partial curve, poor fit]
O=C(NNC(=O)c1cccc(O)c1)Nc1ccc([N+](=O)[O-])cc1 | inconclusive [inhibitor, partial curve, poor fit]
CCC(=O)Nc1cc2c(cc1C(=O)c1ccccc1)OCCO2 | inconclusive [inhibitor, partial curve]
Cc1ccc2nc(N3CCN(S(=O)(=O)c4ccc(C)c(Cl)c4)CC3)c(C#N)cc2c1 | inconclusive [inhibitor, single point]
O=C(CSc1n[nH]c(-c2ccccc2)n1)c1ccccc1 | inactive
COc1ccc(-c2cc(CCCC(=O)N3CCN(c4ccc(OC)cc4)CC3)no2)cc1 | inactive
Cc1ccc(-c2csc(NC(=O)C3CSC4(C)CCC(=O)N34)n2)cc1 (centres undefined) | inactive
COc1cc(/C=N/Nc2nncn2/N=C/c2ccc(O)c(OC)c2)ccc1O | inactive
CCOC(=O)/C(C#N)=C1\CCCN1CC(N)=S | inactive
Nc1sc2c(c1C(=O)NC1CCS(=O)(=O)C1)CCCC2 (centres undefined) | inconclusive [inhibitor, partial curve]
COc1nc(N(C)C)nc(N(C#N)S(=O)(=O)c2ccc(C)cc2)n1 | inconclusive [inhibitor, partial curve, poor fit]
C=CCC1C=C(C)CC(CC=C)N1 (centres undefined) | inactive
Cc1ccc(S(=O)(=O)N2CCOCC2)cc1C(=O)N1CCOCC1 | inconclusive [inhibitor, full curve]

SMILES | Potency
COc1cccc(-n2c(Cc3cc(=O)[nH]c(=O)[nH]3)nnc2SCC(=O)N2CCCCC2)c1 | inconclusive [inhibitor, full curve, poor fit]
c1ccc(-c2nc(NCc3cccs3)c3ccccc3n2)cc1 | inconclusive [inhibitor, partial curve]
COc1ccc2c(c1)cc1c(=O)n(CC(=O)NC(C)C)nc(C)n12 | inactive
CCN1CCC(N2CCN(c3ccc(F)cc3)CC2)CC1 | inconclusive [inhibitor, full curve, poor fit]
COc1ccc(CNC(=O)c2cccc(S(=O)(=O)N3CCCCC3)c2)cc1OC | inactive
CN1/C(=C\C=C(C#N)C#N)C(C)(C)c2ccccc21 | inactive
COc1cc2c(cc1OC)CN(C(=O)CCOc1ccccc1)CC2 | inconclusive [inhibitor, full curve, poor fit]
COc1ccccc1CNC(=O)c1c(O)nc2c(C)cccn2c1=O | inconclusive [inhibitor, full curve, poor fit]
COc1ccccc1NC(=O)CSc1nnc(NC(=O)Nc2ccc(C)cc2)s1 | inactive
Cc1c(NC(=O)c2c(N)n(-c3ccccc3)c3nc4ccccc4nc23)c(=O)n(-c2ccccc2)n1C | inconclusive [inhibitor, partial curve]
COc1ccccc1CNC(=O)C(c1ccccc1)c1ccccc1 | inconclusive [inhibitor, partial curve, poor fit]
COc1ccc(CNC(=O)CN(c2cc(C)cc(C)c2)S(=O)(=O)c2c(C)noc2C)cc1 | inconclusive [inhibitor, full curve, poor fit]
COc1cc(OC)c(C2CC(=O)N3CN(c4ccc(C)cc4)CSC3=C2C#N)cc1OC (centres undefined) | inconclusive [inhibitor, full curve, poor fit]
O=C(Nc1ccccc1C(=O)NCc1ccccc1)c1ccccc1Br | inconclusive [inhibitor, full curve, poor fit]
O=C(c1cccc(F)c1)n1nnc2ccccc21 | inconclusive [inhibitor, full curve, poor fit]
CCOC(=O)N1CCN(c2cc(NCCC(=O)O)c3c4c(onc24)-c2ccccc2C3=O)CC1 | inactive
COc1cccc2cc(C(=O)NCc3ccc(Cl)cc3)c(=N)oc12 | inactive
O=C(CN1C(=O)C2CCCN2c2ncc(Cl)cc21)NCc1ccc2c(c1)OCO2 (centres undefined) | inconclusive [inhibitor, partial curve, poor fit]
Cc1ccc(OC(=O)C23CC4CC(CC(C4)C2)C3)c(C)n1 | inconclusive [inhibitor, partial curve, poor fit]
CC(C)N(O)C(=O)NC(C)(C)C | inconclusive [inhibitor, full curve, poor fit]
c1ccc(CCNc2nc(-c3ccncc3)nc3ccccc23)cc1 | inactive
Clc1ccc2c(c1)C(c1ccccc1Cl)=NCc1nncn1-2 | inconclusive [inhibitor, partial curve, poor fit]
